Test results from PubChem BioAssay AID493208 (National Center for Advancing Translational Sciences (NCATS), 2011).
The whole screen tested about 44,000 compounds, of which about 340 (0.77%) were called active. About 5% were inconclusive and are not listed. Calls come from the whole dose curve; as a rule, active = well fitted inhibition curve with a large enough effect; inconclusive = small, poorly fitted or top-dose-only effect; inactive = flat fitted curve, though single readings scatter. The list shows a part of the results.

assay: Acumen qHTS Assay for Inhibitors of the mTORC1 Signaling Pathway in MEF (Tsc2-/-, p53-/-) Cells: Sytravon; conditions: phospho-rpS6 immunofluorescence/PI, 24 h; series mostly up to 38.3 µM; activity change, negative = inhibition: at the top concentration; note: nearly all actives have a fitted effect of over 50% in size
Excerpt: NIH Molecular Libraries Probe Production Centers Network [MLPCN] NIH Chemical Genomics Center [NCGC] MLPCN Grant: NS059428-01 Assay Submitter (PI): Blenis, John; Hoffman, Greg; Harvard University NCGC Assay Overview: The mammalian target of rapamycin (mTOR) is an intracellular serine/threonine kinase Aberrant regulation of mTOR signaling plays a causative role in a number of human diseases, including cancer, benign tumors such as lymphangioleiomyomatosis (LAM) and Tuberous Sclerosis Complex (TSC), and metabolic diseases such as diabetes and obesity. This project aims to identify inhibitors of ribosomal protein S6 (rpS6) phosphorylation. The phosphorylation of rpS6 is a key event downstream of mTOR activation. The assay uses a phospho-specific antibody of phospho-rpS6 to detect inhibitors of mTOR activation. Mutations in the Tsc1 and Tsc2 genes are the underlying genetic lesions responsible for TSC, causing constitutive activation of the mTORC1 pathway and leading to profound effects on cell metabolism. Aberrant metabolism in cancer has recently received significant attention as a target to develop therapeutic agents in the treatment of cancer.1 As Tsc2-/- cells have lost the ability to respond to energy and growth factor deprivation, these cells are unable to properly down regulate cellular biosynthetic processes in response to metabolic stress, and are thus extremely sensitive to glucose deprivation-induced death.2 A central goal of this project is to explore the unique cell survival and metabolic properties of cells with Tsc1 or Tsc2 by screening for compounds that selectively target the Tsc2-/- MEFs by screening both Tsc2-/- and WT MEF cell lines. We hope to better understand these aspects of TSC physiology in order to exploit them for therapeutic benefit.
NCGC Acumen Assay Protocol Summary: For quantitative high throughput analysis of mTORC1 signaling, we developed a cell-based assay for immuno-fluorescence based detection of rpS6 phosphorylation on the Acumen Explorer that will be used a platform for the primary small molecule screen. Mouse embryonic fibroblasts (MEFs) are cultured in 1536-well plates using DMEM + 10% FBS. Twenty-four hrs after plating, test compounds (solubilized in DMSO) are delivered and incubated with the cells for 24 hrs at 37 degree Celsius. Following the incubation, media with compound is aspirated and the cells are fixed in 4% paraformaldehyde (PFA) containing PBS + 0.2% TX-100. Next, PFA is aspirated, cells are washed two times with PBS plus 0.2% TX-100 and the cells are blocked for 1 hr at room temperature (blocking buffer: LiCOR Blocking Buffer plus 0.2% TX-100). […] Cells are washed two times with PBS plus 0.2% TX-100, and stained with 10 uM propidium iodide (PI) for 20-25 minutes for cell number measurement (1:500 dilution of Hoescht staining is also added for IN Cell imaging). The plates are scanned on the Acumen Explorer laser scanning instrument (TTP Labtech) using the 488nm laser for simultaneous excitation of the Alexa-488 and PI. […] The normalized phospho-S6 staining is calculated as the ratio of the integrated Alexa 488 intensity divided by the integrated PI intensity for the single concentration rapamycin control (7.5 nM) and DMSO columns. […] Inhibition of the pathway is defined based on the normalized phospho-S6 intensity in rapamycin treated cells. Active cells are defined as those with a normalized phospho-S6 staining above this threshold, and each treatment is reported as the % positive cells in the well, where thresholds are defined by selecting wells with the highest and lowest signal and differentiating between the % non-active and % active populations. In addition to the pathway specific phospho-S6 endpoint, the number of PI stained cells from the Acumen is recorded as a measure of cell viability. The primary screen was performed with a MEF cell line in a defined genetic background, Tsc2-/-, p53-/- cell line stably transfected with an empty vector control (Tsc2-/- MEF).

Activity change, negative = inhibition, inactive:
CCn1c(C)c(C)c2cc(C(=O)NCCc3cc(OC)ccc3OC)ccc21 -2.61%
Cc1oc2ncn(CC(C)C)c(=O)c2c1C(=O)NCCCN(C)Cc1ccccc1 -6.54%
O=C(Nc1cccc(C(F)(F)F)c1)C1CCCN(S(=O)(=O)c2cccc3nonc23)C1 (stereo not drawn) -20.8%
Cc1oc2c(C)c3oc(=O)c(CCC(=O)N4CCCCC4)c(C)c3cc2c1C -0.787%
Cc1cc2oc(C(=O)Nc3ccc(S(=O)(=O)N(C)c4ccccc4)cc3)cc(=O)c2cc1C -2.06%
COc1cc(-c2nnc(SCCOc3ccccc3)o2)cc(OC)c1OC 1.08%
CCOC(=O)Cn1c(=O)oc2cc(S(=O)(=O)Nc3ccccc3F)ccc21 -0.697%
CCOC(=O)c1c(SCC(=O)Nc2cccc(C)c2C)nc(=O)[nH]c1C -2.37%
Cc1ccc(Cn2c(CO)cnc2SCC(=O)Nc2cccc(F)c2)cc1 -0.0914%
COc1ccc(-c2noc(-c3ccc(NCCc4ccccc4)c([N+](=O)[O-])c3)n2)cc1 1.54%
CC(=O)N1CCc2c(sc(NC(=O)CSc3ccc(F)cc3)c2-c2nc3ccccc3s2)C1 -18.1%
O=C(Cn1cc(S(=O)(=O)Cc2ccccc2Cl)c2ccccc21)Nc1ccc(F)cc1F -3.96%
COc1ccccc1N1CCN(C(=O)COc2ccccc2C#N)CC1 0.697%
CCOc1ccc(S(=O)(=O)N2CCC(n3c(C)nc4cccnc43)CC2)cc1 0.613%
COC(=O)c1ccc2c(c1)N(Cc1cc(C)ccc1C)C(=O)c1ccccc1S2(=O)=O -10.9%
O=C(Cn1ncc2c(Cl)cccc21)NCc1cccc(F)c1 -0.92%
CCCCN(c1ccccc1)c1ncnc2c1cnn2-c1cccc(C)c1 1.98%
CC(=O)Nc1ccc2nc(SCCOc3ccccc3Cl)sc2c1 -7.91%
CCOC(=O)c1c(C)[nH]c(C)c1S(=O)(=O)N(C)CC(=O)Nc1ccc(C)c(F)c1 0%
Cc1cc(C)c(NC(=O)C2CCCN(C(=O)c3cnn(-c4ccccc4)c3-n3cccc3)C2)c(C)c1 (stereo not drawn) -10.7%
CCc1ccccc1NC(=O)c1ccc2c(c1)c(C)c(C)n2Cc1ccccc1 -7.35%
COC(=O)c1cc2sccc2n1Cc1nc(-c2ccc(C)cc2)oc1C -1.53%
CN(C(=O)CSc1nc2ccccc2n1CC(=O)N(C)C1CCCCC1)c1ccc(F)cc1 4.69%
O=C(COc1ccc(Br)cc1)Nc1ccc(C(=O)OC2CCCCC2)cc1 -3.84%
CCc1nnc2c3ccccc3nc(N3CCN(c4cc(Cl)ccc4C)CC3)n12 4.16%
CCOc1ccc(NC(=O)Cn2c(=O)n(-c3ccccc3)c(=O)c3c4c(sc32)CCCC4)cc1 -16.7%
COC(=O)c1c(Oc2ccc(Br)cc2)nnc(-c2ccccc2)c1-c1ccccc1 -1.75%
Cc1c(Cl)cccc1NC(=O)Cn1c(=O)n(Cc2ccco2)c(=O)c2oc3ccccc3c21 1.75%
O=C1CC(c2ccc(Br)cc2)c2c(ccc3ccccc23)N1 (stereo not drawn) -0.179%
Cc1ccc(CN2CCC(CNC(=O)Nc3cccc(C)c3C)C2)cc1 (stereo not drawn) -13.7%
CCc1nc2nc(C)cc(Nc3ccc(F)c(Cl)c3)n2n1 6.35%
COc1cc(OC)c2c(C)c(CC(=O)N3CCCCC3)c(=O)oc2c1 -11%
Cc1cccc(C(=O)Nc2ccccc2OCc2cc(=O)n3cc(C)ccc3n2)c1 8.56%
CC(=O)N1CCCc2cc(S(=O)(=O)N3CCCC(C(=O)Nc4ccc(C)c(F)c4)C3)ccc21 (stereo not drawn) -3.66%
COc1ccccc1-c1c(C)nn2c(N3CCN(c4ccc(F)cc4)CC3)cc(C)nc12 -1.97%
CCN(CC)CCCNc1oc(-c2ccc(OC)cc2)nc1C#N -4.48%
CC(C)n1c(=O)c2oc3ccccc3c2n(CC(=O)Nc2ccccc2Cl)c1=O -7.73%
CCOC(=O)c1ccccc1NC(=O)c1c(C)oc2ncnc(N3CCOCC3)c12 0.688%
COc1cccc(-n2c(=O)c3c(C)c(C)sc3n(Cc3ccccc3C#N)c2=O)c1 -1.22%
CCOc1ccc(CNC(=O)c2cc3ccccn3n2)cc1 -13.7%
COc1ccc(-c2nc3sc(CCNC(=O)C(=O)Nc4ccccc4C#N)c(C)n3n2)cc1 -1.05%
COCCCNC(=O)c1ccc(Cn2c(=O)c3ccccc3n(Cc3ccc(Cl)cc3)c2=O)cc1 6.39%
Cc1cccc(-n2c(SCC(=O)Nc3ccc(C)c(C)c3)nc3n[nH]c(C)c3c2=N)c1 -15.9%
COc1cccc(-c2nn(C)c3sc(C(=O)NCc4ccc(OC)cc4OC)cc23)c1 -7.65%
COc1ccc(CC(=O)NCC(c2cccs2)S(=O)(=O)c2ccc(F)cc2)cc1 (stereo not drawn) 0.33%
O=C(CN1CCN(Cc2ccccc2F)C1=O)NCc1ccccc1 -18.2%
Cc1ccc(C(=O)N(Cc2ccco2)c2ccccn2)cc1 -14.3%
CCOc1ccccc1NC(=O)C1=C(C)Nc2ncnn2C1c1ccco1 (stereo not drawn) -2.98%
COc1cc(NC(=O)c2nn(C)c3c2COc2ccccc2-3)cc(OC)c1OC 1.46%
COc1ccc(CCNC(=O)c2ccc(Cn3c(SCc4ccccc4)nc4cccnc43)cc2)cc1 0.0449%
CC(C)c1cc(-c2nc(-c3ccc(Cl)cc3)no2)n[nH]1 3.16%
CCc1cnc2c(c1SC(C(C)=O)C(=O)N(C)C)c(=O)n(C)c(=O)n2C (stereo not drawn) -2.55%
CC(C)c1ccc(NC(=O)c2ccc(CN3CC(=O)N4CCCCC4C3=O)cc2)cc1 (stereo not drawn) -18.8%
CCc1ccc(C2CC(=O)Nc3c2c(=O)nc2c(C)cccn32)cc1 (stereo not drawn) 1.01%
Cc1cccc(NC(=O)Cn2c(=O)n(Cc3ccccc3)c(=O)c3oc4ccccc4c32)c1C 3.52%
Cc1ccc(CNC(=O)c2c(Nc3c(C)cccc3C)sc(C(=O)c3ccccc3)c2N)cc1 -3.09%
CCOc1ccc(C2C(C(N)=O)=C(C)Nc3nc(SCc4ccccc4F)nn32)cc1 (stereo not drawn) -2.94%
COc1ccccc1C(=O)Nc1ccc(C(=O)OCc2cc(=O)n3c4c(sc3n2)CCCC4)cc1 0%
COc1ccccc1NC(=O)c1cnn(-c2ccccc2)c1-n1cccc1 -4.54%
CN(C)c1ccc(CNC(=O)c2ccc3nc(Cc4ccccc4)oc3c2)cc1 0.35%
CSc1ccc(CCNC(=O)c2csc3c2CCCCC3)cc1 2.17%
O=C(O)CCn1ccc2cc(S(=O)(=O)N3CCCCCC3)ccc21 -0.279%
Cc1cc(C)c(NC(=O)C(=O)NCCc2csc(-c3ccc(F)cc3)n2)c(C)c1 -12%
